SMILES strings stand for the structures. Where “and” joins values, the source holds several entries; their conditions need not be identical. Equal values may be shown once. Where a name gives a salt, the structure may show the parent alone. Whole data set: some 2,800 compounds, median “cell viability relative to vehicle” near 1.1, cut for the lowest 2% near 0.19. This is one part of the list.

This assay concerns NCI-H2228 parental. The assay is described as follows: cell viability relative to vehicle (fraction of vehicle); NCI-H2228 is an ALK-positive lung cancer line and DTP means drug-tolerant persister; higher = less growth inhibition. Conditions: 100 nM; treatment time 6 days. The essentials: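 Drug-tolerant persister NCI-H2228 cells, produced by 13 days in 1000 nM of a targeted drug, and their parental counterparts were seeded into 384-well plates and, the following day, given the 3114-agent TargetMol anti-cancer compound library at 100 nM or DMSO vehicle. After 6 days, the CellTiter-Glo 3D Cell Viability Assay was used to read ATP. Each entry reports viability compared with vehicle-treated cells.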
Turning to `C[C@H](N[C@@H](CCc1ccccc1)C(=O)O)C(=O)N1CCC[C@H]1C(=O)O` [Enalaprilat Dihydrate], the cell viability was 1.09.

`O=C(Nc1cc(C(F)(F)F)cc(C(F)(F)F)c1)c1cc(Cl)ccc1O`: the cell viability was found to be 1.03.

As for `O=C1/C(=C/c2cccs2)CC/C1=C\c1cccs1`, the cell viability was 1.11.

As to `NC(=O)N[C@@H](CCC(=O)O)C(=O)O` [Carbaglu], the cell viability stood at 1.08.

On to `COCCCC/C(=N\OCCN)c1ccc(C(F)(F)F)cc1` [Fluvoxamine maleate], for which the cell viability amounted to 1.12.

For `C(=N\NC1=NCCN1)/c1c2ccccc2c(/C=N/NC2=NCCN2)c2ccccc12` [Bisantrene], the cell viability amounted to 1.01.

Regarding `O=C(NC[C@H]1CN(c2ccc(N3CCOCC3=O)cc2)C(=O)O1)c1ccc(Cl)s1` [Rivaroxaban], the cell viability amounted to 0.974.

As to `COc1cc(N2CCC(N3CCN(C)CC3)CC2)ccc1Nc1ncc(Cl)c(-c2c[nH]c3ccccc23)n1`, the cell viability came out at 0.358.

On to `O=C(O)Cc1ccc(-c2ccccc2)cc1` [4-Biphenylacetic acid], for which the cell viability was 1.1.

For the compound `COC(=O)c1ccc2c(c1)nc(NC(=O)c1ccccc1)n2CCCc1ccccc1`, the cell viability came to 1.03.

Turning to `CN1CCN(Cc2ccc(Nc3ncc(Cl)c(Nc4ccccc4S(=O)(=O)N(C)C)n3)cc2)CC1`, the cell viability was 0.0869.

`c1ccc(NCc2ccc(CNc3ccccn3)cc2)nc1`: the cell viability was 0.814.

Turning to `N=C(NCCCCCCNC(=N)NC(=N)Nc1ccc(Cl)cc1)NC(=N)Nc1ccc(Cl)cc1` [Chlorhexidine], the cell viability was determined as 1.08.

Turning to `N=C(NCCCCCCNC(=N)NC(=N)Nc1ccc(Cl)cc1)NC(=N)Nc1ccc(Cl)cc1` [Chlorhexidine hydrochloride], the cell viability was 0.965.

As to `Cn1c(=O)c2c(ncn2CC(=O)Nc2ccc(-c3ccccc3)nn2)n(C)c1=O`, the cell viability stood at 0.995.

For the compound `COc1ccc2c(OCc3nnc4ccc(-c5ccccc5)nn34)ccnc2c1`, the cell viability was 1.13.

For `COc1c2occc2cc2ccc(=O)oc12` [8-Methoxypsoralen], the cell viability stood at 1.24.

For the compound `CC(C)CC(N)=O` [Isovaleramide], the cell viability was found to be 1.15.

In the case of `CC1(C)CC[C@]2(C(=O)O[C@@H]3O[C@H](CO)[C@@H](O)[C@H](O)[C@H]3O)CC[C@]3(C)C(=CC[C@@H]4[C@@]5(C)CC[C@H](O[C@@H]6O[C@H](C(=O)O)[C@@H](O)[C@H](O)[C@H]6O)C(C)(C)[C@@H]5CC[C@]43C)[C@@H]2C1` [Chikusetsusaponin IVa], the cell viability came out at 1.04.

In the case of `CN1CCN(C2=Nc3ccccc3Oc3ccc(Cl)cc32)CC1` [Loxapine succinate salt], the cell viability amounted to 1.13.

On to `CCOC(=O)[C@@H](N)Cc1ccc(-c2cc(O[C@H](c3ccc(Cl)cc3-n3ccc(C)n3)C(F)(F)F)nc(N)n2)cc1` [Telotristat Etiprate], for which the cell viability was found to be 1.15.

As to `O=C(O)c1ccc(S(=O)(=O)NC2CCCCC2)cc1`, the cell viability was 0.986 and 1.12.

Turning to `C[N+]1(C)CCC(OC(=O)C(O)(c2ccccc2)C2CCCC2)C1` (stereo not drawn) [Glycopyrrolate], the cell viability worked out at 0.836.

For `CCCCCCCCCCCCCCCCCCOCC(O)CO` (stereo not drawn) [Batyl alcohol], the cell viability worked out at 0.988.

Regarding `C[C@@]1(C(=O)Nc2ccc(F)nc2)CCCN1c1nc(Nc2cc(C3CC3)n[nH]2)c2cccn2n1`, the cell viability is 0.596.

Regarding `Clc1ccc(CCC(Cn2ccnc2)Sc2c(Cl)cccc2Cl)cc1` (stereo not drawn) [Butoconazole nitrate], the cell viability stood at 1.35.

As to `N#Cc1ccc(C(c2ccc(C#N)cc2)n2cncn2)cc1` [Letrozole], the cell viability is 1.09.

Regarding `COc1ccc([C@@H]2CC(=O)c3c(O)cc(O)cc3O2)cc1O` [Hesperetin], the cell viability was 1.11.

With `COc1cc(N2CCOCC2)ccc1Nc1ncc(Cl)c(Nc2ccccc2NS(C)(=O)=O)n1`, the cell viability worked out at 0.573.

`C=C1[C@H](OC(=O)/C=C(\C)CC)C[C@@H](C(C)C)[C@@H]2[C@@H]([C@@H](C)OC(C)=O)C(=O)C[C@@H]12` [Tussilagone]: the cell viability worked out at 1.1.

In the case of `Nc1c(CC(=O)O)cccc1C(=O)c1ccccc1` [Amfenac Sodium Monohydrate], the cell viability came to 1.19.

Consider `N=C1NC(=O)/C(=C/c2ccc(O)cc2)S1` [Mirin], for which the cell viability is 1.05.

With `NC(=O)c1ccc(N(C(N)=O)c2c(F)cccc2F)nc1-c1ccc(F)cc1F`, the cell viability came to 1.14.

With `Oc1cc(O)c2c(c1)O[C@H](c1ccc(O)c(O)c1)[C@@H](O)C2` [Cianidanol], the cell viability was found to be 1.06.

Regarding `O=c1cc(-c2ccccc2)oc2c(O)c(O)ccc12` [7,8-Dihydroxyflavone], the cell viability was 1.1.

As for `CCN(CC)CCOC(=O)C1(C2CCCCC2)CCCCC1` [Dicyclomine hydrochloride], the cell viability was 1.47.

`CCCc1cc(C)[nH]c(=O)c1CNC(=O)c1cc(-c2ccc(N3CCN(C(C)C)CC3)nc2)cc2c1cnn2C(C)C`: the cell viability amounted to 1.12.

`CN[C@@H](C)C(=O)N[C@H](C(=O)N1CCC[C@H]1c1nc(C(=O)c2ccc(F)cc2)cs1)C1CCCCC1`: the cell viability is 1.18.

Consider `COc1nccc(-c2c(-c3ccc(F)cc3)ncn2C2CCC(O)CC2)n1` (stereo not drawn), for which the cell viability is 0.885.

For `COc1c(C)c(C(=O)c2ccc(N)c(C(=O)O)c2)n2ccccc12`, the cell viability turned out to be 1.02.

Consider `O=C1C[C@@H](c2ccccc2)Oc2cc(O)cc(O)c21` [Pinocembrin], for which the cell viability amounted to 1.03.

On to `COc1ccc(-c2ccc3c(N4CCOC[C@@H]4C)nc(N4CCOC[C@@H]4C)nc3n2)cc1CO`, for which the cell viability worked out at 0.219.

As to `COc1cc2ncnc(Sc3nnc(C)s3)c2cc1OC`, the cell viability was determined as 0.892.

Consider `O=C(NC[C@H](O)CN1CCc2ccccc2C1)c1cc(NC2COC2)ncn1`, for which the cell viability was 0.931.

As for `O=C1NC(=O)C(c2cnc3ccccn23)=C1c1cn2c3c(cc(F)cc13)CN(C(=O)N1CCCCC1)CC2`, the cell viability came out at 0.297.

As for `CN(C)C/C=C/C(=O)Nc1ccc(C(=O)Nc2cccc(Nc3ncc(Cl)c(-c4c[nH]c5ccccc45)n3)c2)cc1`, the cell viability was 0.552.

Turning to `Cc1cn[nH]c1` [4-Methylpyrazole], the cell viability worked out at 1.11.

`CC1(C)CC[C@]2(C(=O)O)CC[C@]3(C)C(=CC[C@@H]4[C@@]5(C)C[C@@H](O)[C@H](O)C(C)(C)[C@@H]5CC[C@]43C)[C@@H]2C1` [Maslinic acid]: the cell viability turned out to be 0.955.

Turning to `Cc1ccc(-c2csc3ncnc(SCCC(=O)O)c23)cc1`, the cell viability turned out to be 1.09.

As to `NCCc1c[nH]cn1` [Histamine 2HCl], the cell viability turned out to be 0.967.

For `NCCc1c[nH]cn1` [Histamine], the cell viability was found to be 1.09.

With `OC(Cn1cncn1)(Cn1cncn1)c1ccc(F)cc1F` [Fluconazole], the cell viability came out at 1.28.

Take `CC(=O)Nc1cccc(-n2c(=O)n(C3CC3)c(=O)c3c(Nc4ccc(I)cc4F)n(C)c(=O)c(C)c32)c1` [Trametinib]: the cell viability was determined as 0.403.
